Experimental data as given in the antibiotic and cytotoxicity screens of Wong et al. (2023).
This is one part of the list.

test system: HSkMC (human skeletal muscle cells); assay: cytotoxicity call (relative viability < 0.9); conditions: 10 µM

Compound	cytotoxicity call
C[C@H]1CN([C@@H](C)CO)C(=O)c2cc(-c3ccncc3)cnc2O[C@H]1CN(C)S(=O)(=O)c1ccccc1	inactive
Cc1n[nH]c(=S)[nH]c1=O	inactive
CNc1ccccc1C(=O)N1CCc2c([nH]c3ccccc23)C1=O	inactive
CCC(=O)Nc1ccc2c(c1)C(=O)N(C)C[C@H](OC)[C@H](C)CN(C(=O)CN1CCOCC1)[C@@H](C)CO2	inactive
C[C@H]1CN([C@@H](C)CO)C(=O)c2cc(NC(=O)C3CCCCC3)ccc2O[C@H]1CN(C)Cc1ccc(-c2ccccc2)cc1	inactive
CCc1cccc2c3c([nH]c12)C(CC)(CC(=O)O)OCC3 (centres undefined)	inactive
CCSc1nnc2c(=O)[nH]c(=O)[nH]c2n1	inactive
O=C(N[C@@H]1CC[C@H](CCn2cc(C3(O)CCCC3)nn2)O[C@@H]1CO)C1CCOCC1	inactive
CC(C)NC(=O)N(C)C[C@@H]1Oc2ccc(NC(=O)Cc3ccccc3)cc2CC(=O)N([C@@H](C)CO)C[C@@H]1C	inactive
CN1CCN(C(=O)C[C@H]2CC[C@@H](NC(=O)c3ccc4c(c3)OCO4)[C@@H](CO)O2)CC1	inactive
C[C@H]1CN([C@@H](C)CO)C(=O)c2c(c3ccccc3n2C)-c2ccccc2CO[C@H]1CN(C)Cc1ccc2c(c1)OCO2	inactive
C[C@@H]1CN([C@H](C)CO)C(=O)Cc2cc(NS(C)(=O)=O)ccc2O[C@@H]1CN(C)C(=O)Nc1ccc(F)cc1	inactive
C[C@@H]1CN([C@H](C)CO)C(=O)Cc2cc(NC(=O)Cc3cn(C)c4ccccc34)ccc2O[C@@H]1CN(C)Cc1ccc(Cl)c(Cl)c1	inactive
C[C@@H]1CN([C@@H](C)CO)C(=O)Cc2cc(NC(=O)CCCN(C)C)ccc2O[C@H]1CN(C)C(=O)Nc1ccccc1	inactive
C[C@H]1CN([C@@H](C)CO)C(=O)c2c(c3ccccc3n2C)-c2ccccc2CO[C@@H]1CN(C)Cc1ccc(Oc2ccccc2)cc1	inactive
COc1ccc(S(=O)(=O)N(C)C[C@@H]2Oc3ccc(N(C)C)cc3CC(=O)N([C@@H](C)CO)C[C@H]2C)cc1	inactive
COc1ccc(S(=O)(=O)N(C)C[C@@H]2OCCCC[C@H](C)Oc3ccc(NS(C)(=O)=O)cc3C(=O)N([C@@H](C)CO)C[C@H]2C)cc1	inactive
NCC[C@H]1CC[C@@H](NC(=O)c2ccccc2F)[C@H](CO)O1	inactive
CCS(=O)(=O)N1CCNCC1	inactive
C[C@@H]1CCCCO[C@@H](CN(C)Cc2ccc(Cl)c(Cl)c2)[C@@H](C)CN([C@H](C)CO)C(=O)c2cc(NC(=O)CCC(F)(F)F)ccc2O1	inactive

Compound	cytotoxicity call
N#Cc1c(N)nc(SCc2csc(-c3ccc(Cl)cc3)n2)c(C#N)c1-c1ccc(OCCO)cc1	active
COCCN1C(=O)C2=C(C1=O)[C@H]1N(C)c3ccccc3[C@@]13C[C@@H](CO)N(C(C)=O)C3=N2	inactive
C[C@H](CO)N1C[C@H](C)[C@H](CN(C)C(=O)Nc2cccc3ccccc23)OCCCC[C@H](C)Oc2ccc(N(C)C)cc2C1=O	inactive
O=C(O)CNC(=O)CN1C(=O)c2ccccc2C1=O	inactive
C[C@H](CO)N1C[C@H](C)[C@@H](CN(C)CC2CCCCC2)Oc2ccc(NS(=O)(=O)c3cn(C)cn3)cc2CC1=O	inactive
C[C@@H]1CCCCO[C@H](CN(C)S(=O)(=O)c2ccc(Cl)cc2)[C@@H](C)CN([C@H](C)CO)C(=O)c2cc(NC(=O)Cc3ccccc3)ccc2O1	inactive
CCc1nnc(N)o1	inactive
Cc1sc(C)c(CNc2ccccc2)c1CNc1ccccc1	inactive
Cc1noc(C)c1S(=O)(=O)Nc1ccc2c(c1)C(=O)N([C@@H](C)CO)C[C@@H](C)[C@H](CN(C)C(=O)Nc1ccc(F)cc1)OCCCC[C@@H](C)O2	inactive
C[C@H](CO)N1C[C@H](C)[C@@H](CN(C)C(=O)CCCN(C)C)OCCCC[C@H](C)Oc2ccc(NS(C)(=O)=O)cc2C1=O	inactive
C[C@@H]1CN([C@H](C)CO)C(=O)c2cc(C#Cc3ccccc3F)cnc2O[C@H]1CN(C)C(=O)C1CCOCC1	inactive
CCOC(=O)C(CCc1ccccc1)NC(C)C(=O)N1Cc2ccccc2CC1C(=O)O (centres undefined)	inactive
COC(=O)[C@@H](Cc1ccc(-n2cc(C(=O)NO)nn2)cc1)N1CC2=CC(=O)[C@@H](C3CC3)[C@@H]2[C@H]1[C@H](O)Cc1ccccc1	inactive
C[C@H]1CN([C@@H](C)CO)C(=O)c2cccc(NC(=O)C3CC3)c2O[C@@H]1CN(C)C(=O)Nc1ccc2c(c1)OCO2	inactive
Cc1noc(C)c1S(=O)(=O)Nc1ccc2c(c1)CC(=O)N([C@@H](C)CO)C[C@@H](C)[C@H](CN(C)C(=O)NC1CCCCC1)O2	inactive
C[C@@H]1CN([C@H](C)CO)C(=O)c2cc(NC(=O)Cc3ccccc3)ccc2O[C@@H]1CN(C)Cc1ccc(-c2ccccc2)cc1	inactive
C[C@H](CO)N1C[C@H](C)[C@@H](CN(C)Cc2ccc(C(F)(F)F)cc2)Oc2ccc(NC(=O)Nc3ccccc3)cc2CC1=O	inactive
C[C@@H]1CN([C@H](C)CO)C(=O)c2cc(NC(=O)Nc3cccc4ccccc34)ccc2O[C@@H](C)CCCCO[C@H]1CN(C)C	inactive
CC(C)NC(=O)Nc1cccc2c1O[C@H](CN(C)S(=O)(=O)c1cn(C)cn1)[C@@H](C)CN([C@@H](C)CO)C2=O	inactive
